# Measurements from the supplement of paper PMC3334620.
# The full ranking holds about 33,000 sequences; the median of “E-score (-0.5 to 0.5)” is about -0.056, and the highest 2% start at about 0.38. This is one part of the list.
# Target: Stb4 (UniProt P50104)
# Test: PBM E-score (8-mer binding enrichment) (E-score (-0.5 to 0.5)); higher = stronger / more preferred TF binding; most listed sequences are background and not binding sites
# Conditions: protein concentration: 200 nM; construct: GST-DNA-binding domain
# Procedure, shortened: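 Bound GST-tagged yeast transcription factors, applied at about 100-200 nM to double-stranded universal all-10-mer Agilent arrays, were detected with fluorescent anti-GST. Scans were normalised with masliner. A modified Wilcoxon-Mann-Whitney statistic, the E-score, was assigned to each ungapped eight-base word pooled with its reverse complement by the Universal PBM Analysis Suite.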
row,Sequence,PBM E-score
1,AGACGGTG,-0.15
2,CTACCTTC,-0.00447
3,ACGAGTTC,-0.00258
4,CCCAGCGA,-0.218
5,ACACAGAT,-0.239
6,GGCCAACA,0.0943
7,ATGCCGAC,0.333
8,GCCGCCGC,0.0507
9,ACCTCTCA,-0.147
10,ATGGGGAC,-0.055
11,CTACTAAC,0.0266
12,CAAAGACG,-0.012
13,AACGCCAC,-0.0971
14,CATGATTA,-0.195
15,ACTACCCG,0.401
16,AAAGCAGC,-0.119
17,CTCATCGA,-0.0597
18,ATGAACAG,-0.0564
19,ACTGACAG,-0.0505
20,CAGGCGTC,-0.216
21,CCATAATC,-0.118
22,AGGCTGAC,-0.119
23,ATGCCGTG,0.00847
24,AAGCTAGC,-0.132
25,ACGAGAGT,-0.174

row,Sequence,PBM E-score
1,CAATCGAC,-0.235
2,AGGTTTCC,-0.0733
3,AGCTTAGC,-0.165
4,AAAGCTGA,-0.0624
5,GTTATTTA,0.111
6,ATGAATAG,0.00085
7,AGAGGAAC,-0.149
8,CTCCTCCA,-0.31
9,CCCTTAGG,-0.297
10,GTGAAAAA,0.152
11,AGCGTTAG,-0.166
12,AGATCTAA,-0.203
13,AGAGTGCG,-0.164
14,GCCCGTAA,0.0313
15,CAGAGAAG,-0.0211
16,GGAATAGA,0.126
17,AAGGGTAT,0.0918
18,GAAGTTGA,-0.085
19,CGACCGAA,0.274
20,CCAAGTCG,-0.0205
21,GCAGATAA,0.0884
22,AATTATGA,0.0422
23,CGGAGACG,0.235
24,CGCCACTA,-0.194
25,CGAACTGA,0.0902

row,Sequence,PBM E-score
1,GAACTCCA,-0.178
2,TCCACAGA,-0.15
3,CGCCTAAG,-0.13
4,ATCGTGCG,-0.0188
5,GCCGCTGA,0.107
6,AATGCTGA,-0.268
7,GTATAAGA,-0.162
8,GACCCTCA,-0.162
9,ATATACGC,-0.2
10,CGAAGTCC,0.213
11,TGCCCGCA,-0.0283
12,AGCTTACG,-0.213
13,CCCACCTC,-0.102
14,GAGACAGC,-0.0706
15,GCCAGACA,-0.00042
16,AGTGCTGG,-0.295
17,ATACCGGG,0.256
18,CTACTGAC,-0.0845
19,GGTGTCAC,0.153
20,AGGCGAGG,-0.143
21,ACAAACTG,-0.225
22,ATGTTATC,0.0348
23,CGGGAAGA,0.401
24,ATTCTCTG,-0.242
25,AGTTATCA,-0.149

row,Sequence,PBM E-score
1,CGCCTCCG,0.206
2,GAGCTATA,-0.147
3,AGAACTAT,-0.037
4,TGTATCAA,-0.135
5,ACCCGAGC,0.468
6,ATTACGGG,0.0786
7,AGTTGTAT,-0.128
8,TAAGATCA,-0.0709
9,GAATATGC,0.0994
10,GCAAGCCA,-0.0993
11,GAGCGTTA,-0.128
12,CTACGGAC,-0.0122
13,GATACGGA,0.297
14,ATTGGCAC,-0.123
15,AGACACCA,-0.0518
16,CCTGTTGA,-0.26
17,AGAGTACA,-0.0793
18,ACCCCGCA,-0.0929
19,AAAAACAG,-0.183
20,AGGCAAAT,0.0165
21,AGCAATAA,-0.0891
22,GACTTGCA,0.0343
23,AACGGAAC,0.348
24,TCGACCCA,-0.208
25,ATGCATGC,-0.269

row,Sequence,PBM E-score
1,AGATCGCT,-0.026
2,ATTCAAAT,-0.0949
3,CTCGCTAA,-0.0851
4,AGTGCCTC,-0.0719
5,CGCGATAG,-0.06
6,AACAGCCC,0.00917
7,ATCGTACG,-0.0566
8,AAACGCAC,-0.0375
9,GAGAACTC,-0.0488
10,GACACTAA,-0.0556
11,AAGATCAA,-0.079
12,GATCTCAC,-0.0444
13,CCGACTAA,0.29
14,TCTCGTCA,-0.0473
15,ATCTATGC,-0.115
16,GTTGCAAA,-0.0177
17,AATTAATC,-0.157
18,AATAGCCA,-0.214
19,CTGCATGC,-0.0844
20,AGGGTCTC,-0.19
21,CTCCGCGC,0.168
22,GAGGCAAC,-0.0361
23,GTTGGTAA,-0.131
24,ACGTCCAA,-0.167
25,TCCACCGA,0.131

row,Sequence,PBM E-score
1,CGCTGCTA,0.0515
2,AAGGGATG,-0.185
3,CGTGGAGA,-0.148
4,ATGAGCGG,0.077
5,GGCTTAAC,-0.0396
6,ACGATTCG,0.182
7,CCCAGGTA,-0.309
8,CCCCTCGA,-0.0442
9,CAATGGGC,-0.149
10,GCTTATAC,-0.141
11,AGAGAGTA,-0.182
12,TCTGGAAA,-0.196
13,ACTGCGGG,0.116
14,ATCAGACG,-0.0153
15,AGTCGTAC,-0.158
16,ATCCTCGG,0.417
17,TGGAGCAA,-0.141
18,AGAATAGC,-0.102
19,ACGAGGGG,-0.168
20,GCGTTGAC,-0.201
21,CCCAATAA,-0.163
22,TACTGCTA,-0.053
23,AGGGCCCT,-0.163
24,ATCTGCTC,-0.0491
25,AAACACAT,-0.2

row,Sequence,PBM E-score
1,GCAGGTTA,0.0294
2,AAATGACT,-0.252
3,CGTGTGCA,-0.135
4,AAACGCGC,-0.0415
5,CACCCGTC,0.166
6,CAAGTGGG,-0.0904
7,ACTCACTG,-0.0866
8,AAGTGTAA,-0.102
9,CAACGGCC,0.0109
10,AACAACAA,-0.0268
11,AAAGTCAT,-0.181
12,AGCCATTG,-0.276
13,CACGAGGG,-0.0631
14,AGGACTAA,-0.00406
15,AGATCCAC,0.149
16,GAGCGGAA,0.343
17,AATGTGAC,-0.24
18,ACAGGTAG,-0.272
19,AGCAAGGA,-0.273
20,AGAGTAAT,0.0305
21,TCATTGCA,-0.328
22,GAACTCGC,-0.0568
